Reference: the supplement of paper PMC7335073
In all, about 4,100 sequences were measured (“relative CpG methylation activity (normalised to average over all NNNCGNNN flanks)”: median about 0.87, highest 2% from about 2.4 on). The list shows a part of the results.

These sequences were tested against DNMT3A catalytic domain (mouse) (UniProt O88508) (assay: relative CpG methylation activity (normalised to average over all NNNCGNNN flanks) (relative (1 = mean)); higher = more methylation of the central CpG). Conditions: system: in vitro, murine catalytic domain; CpG state: hemimethylated substrate pool; residues: 608-908.
How it was run: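 Pooled dsDNA substrates with a central CpG inside 10 random flanking nucleotides were methylated by murine DNMT3A or DNMT3B catalytic domain with 0.8 mM S-adenosyl-L-methionine in HEPES pH 7.5 buffer for 60 min at 37 °C. The DNA then went through proteinase K, BsaI-HFv2 digestion, hairpin ligation, bisulfite conversion and two-step PCR before Illumina sequencing. Relative methylation activity is the average methylation of each context with three flanking bases per side, divided by the mean over all contexts. Each experiment had two independent repeats.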

| Sequence | relative CpG methylation activity |
| --- | --- |
| CGTCGAAC | 0.591 |
| TTGCGCCG | 1.96 |
| AAGCGTGA | 0.158 |
| CCTCGACC | 1.37 |
| GAGCGTCG | 0.833 |
| ACGCGTAT | 0.711 |
| TATCGATA | 0.599 |
| GATCGAGC | 0.679 |
| AACCGTGT | 0.399 |
| CCGCGTAA | 1.18 |
| ATGCGCTA | 1.77 |
| GGCCGATC | 1.24 |
| TTACGGAA | 1.89 |
| CTACGGCT | 2.07 |
| CTACGCAT | 1.97 |
| AAACGTTA | 0.554 |
| GACCGAAG | 0.897 |
| CAGCGTTG | 0.138 |
| AATCGGTG | 0.236 |
| CGGCGACA | 0.647 |
| ACCCGATG | 0.565 |
| GCACGTGC | 0.642 |
| CACCGCAT | 0.731 |
| TTCCGCGC | 2.03 |
| ATACGTCT | 2.22 |

| Sequence | relative CpG methylation activity |
| --- | --- |
| GCCCGACC | 1.64 |
| CTGCGTTG | 0.708 |
| CGGCGCCC | 1.28 |
| TTTCGGTC | 1.6 |
| GACCGGGG | 0.227 |
| CCACGTAG | 0.821 |
| GCGCGTCC | 1.22 |
| TGTCGTGC | 0.188 |
| CAGCGGCC | 0.844 |
| CACCGTGT | 0.273 |
| AGCCGTAG | 0.455 |
| GGCCGGCA | 0.941 |
| CCACGACG | 1.18 |
| CTTCGTTA | 0.946 |
| GTACGGAG | 0.944 |
| CAGCGCCA | 0.766 |
| ATTCGCCG | 1.43 |
| GAACGCCC | 1.6 |
| GACCGTAA | 1.06 |
| AGACGGAC | 1.05 |
| GGCCGGAA | 0.714 |
| ATTCGGGT | 0.342 |
| GAACGTGG | 0.282 |
| GTTCGGAA | 1.19 |
| CGTCGTTG | 0.217 |

| Sequence | relative CpG methylation activity |
| --- | --- |
| TTACGGTC | 2.21 |
| GTTCGACT | 0.876 |
| GTGCGACC | 1.61 |
| TACCGCAC | 0.956 |
| GGACGTTT | 0.479 |
| CTCCGTTT | 1.55 |
| GGACGTAC | 0.683 |
| CGACGGCG | 0.591 |
| CAACGAGC | 1.17 |
| AATCGTGC | 0.123 |
| TGACGACT | 0.687 |
| CCTCGGGC | 1.18 |
| AGGCGCTC | 1.58 |
| ATACGACA | 1.85 |
| GATCGGTT | 0.495 |
| GAACGCCA | 1.01 |
| ACCCGGTA | 0.917 |
| CTTCGGAG | 0.254 |
| TCTCGGAA | 0.868 |
| ATTCGGAC | 1.05 |
| CAACGCTA | 0.826 |
| CATCGACT | 0.6 |
| CGACGGTA | 0.633 |
| ATTCGGTA | 0.466 |
| TCACGCTA | 1.56 |

| Sequence | relative CpG methylation activity |
| --- | --- |
| TGTCGCGA | 0.253 |
| GACCGTGA | 0.433 |
| ATGCGCTT | 2.2 |
| CTCCGTCA | 1.79 |
| GCCCGCTC | 1.99 |
| ATCCGTCT | 2.05 |
| TCACGGCT | 1.48 |
| TACCGTAC | 0.485 |
| CGACGAAT | 0.569 |
| GAGCGTAA | 0.71 |
| CACCGGGA | 0.737 |
| TAACGCGC | 1.05 |
| TTGCGTTG | 1.32 |
| AATCGTGA | 0.199 |
| CGGCGACG | 0.593 |
| GCCCGCGC | 0.97 |
| AATCGTCA | 0.734 |
| GCACGCGG | 0.576 |
| TATCGAGG | 0.25 |
| TACCGTTC | 0.759 |
| AGACGCTG | 1.09 |
| GAGCGAGG | 0.403 |
| CATCGCAG | 0.319 |
| CTCCGCGT | 1.98 |
| GCCCGAAA | 1.39 |

| Sequence | relative CpG methylation activity |
| --- | --- |
| TGTCGGCC | 0.9 |
| TTACGCAT | 2.29 |
| GGCCGAGG | 0.41 |
| TACCGTGA | 0.609 |
| GGCCGCAG | 0.598 |
| GTACGCAC | 1.87 |
| GCTCGATT | 0.804 |
| TGACGGCA | 0.813 |
| TTACGCGA | 1.73 |
| CACCGGTA | 0.756 |
| CCTCGTAG | 0.669 |
| GGACGCTT | 1.1 |
| GCCCGGCA | 1.35 |
| GCTCGCGC | 1.47 |
| TGACGGCC | 1.1 |
| ATACGTCA | 2.47 |
| TATCGCCT | 1.86 |
| GCACGATT | 1.02 |
| ATTCGTTG | 0.368 |
| CACCGGTT | 0.586 |
| AAACGGGC | 0.976 |
| ATCCGCAA | 1.6 |
| CCCCGGCG | 1.03 |
| ACCCGCTG | 1.46 |
| CTCCGACC | 2.21 |

| Sequence | relative CpG methylation activity |
| --- | --- |
| TATCGCGC | 0.611 |
| ATTCGGAG | 0.438 |
| TAGCGGGC | 0.438 |
| TGCCGGTA | 0.455 |
| TGGCGAGG | 0.323 |
| TGCCGGTT | 0.585 |
| CGGCGGAC | 0.652 |
| GCTCGCTT | 1.97 |
| ACACGCTT | 2.37 |
| GTGCGAAG | 0.806 |
| AGCCGGTC | 0.888 |
| TGCCGGAA | 0.858 |
| ATCCGGAG | 0.678 |
| CGGCGAAA | 0.645 |
| CGTCGGAT | 0.721 |
| ATTCGATC | 1.16 |
| TGGCGTTC | 0.5 |
| AGCCGGGC | 0.657 |
| TATCGAAT | 0.301 |
| TTACGCAG | 1.39 |
| ATCCGAGC | 1.96 |
| CCACGAAG | 0.566 |
| GTTCGGGA | 0.463 |
| TAGCGGCC | 1.02 |
| CAACGATA | 0.653 |

| Sequence | relative CpG methylation activity |
| --- | --- |
| ACCCGCAA | 1.35 |
| CTGCGCAG | 0.583 |
| TTTCGTTC | 1.16 |
| CTTCGAAA | 1.03 |
| CGTCGCGG | 0.167 |
| TTTCGAGT | 0.662 |
| CTTCGATC | 1.22 |
| TATCGGCC | 1.04 |
| AAGCGTTT | 0.441 |
| CGTCGCAC | 0.873 |
| GAGCGTAT | 0.397 |
| ACCCGGGG | 0.682 |
| GGCCGCAT | 0.898 |
| GCTCGACA | 1.04 |
| ACACGTGG | 0.404 |
| GGACGGGA | 0.592 |
| TCGCGGTC | 0.714 |
| ACGCGGTG | 0.893 |
| TTCCGTCC | 2.26 |
| CTACGGGG | 1.1 |
| GCTCGTTG | 0.301 |
| CAGCGATT | 0.565 |
